Here are results for 31 sequences from article PMC12820563.

Some of the results follow. The list includes weakly bound sequences.

The experiment has as its target T1, MBP-FoxP3dN (UniProt Q99JB6).
T1 sequence: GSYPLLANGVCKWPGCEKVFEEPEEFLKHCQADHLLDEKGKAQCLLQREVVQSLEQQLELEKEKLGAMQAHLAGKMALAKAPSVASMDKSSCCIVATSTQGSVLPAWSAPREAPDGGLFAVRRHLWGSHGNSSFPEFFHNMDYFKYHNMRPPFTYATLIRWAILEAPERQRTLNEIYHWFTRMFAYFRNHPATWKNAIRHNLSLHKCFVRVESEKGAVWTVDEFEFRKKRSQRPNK
The experiment in a line: PD-seq (MBP pull-down with sequencing). Particulars: 20 mM Tris-HCl pH 7.5, 100 mM NaCl, 1.5 mM MgCl2, 0.4 uM protein, 0.1 uM dsDNA library, 30 min, room temperature, amylose pull-down; high values mean tight binding; double strand, one strand shown.
Take “GATGATTGTTCTCCCAGCTGATGAATTTTAGCCATCGAGTAAACAAATTTTCCTAATCTTTCTGTTCAAGCGCCATCTAC”: the binding signal (RPM ratio (pull-down/input)) is 1.79.
The result for “GATGATTGTTCTCCCAGCTGATGAATTCGCGACGTCGAGTAAACAAATTTTCCTAATCTTTCTGTTCAAGCGCCATCTAC” reads 0.439; that for “GATGATTGTTCTCCCAGCTGATGAATTTGGCAAGTCGAGTAAACAAATTTTCCTAATCTTTCTGTTCAAGCGCCATCTAC”, 1.49; that for “GATGATTGTTCTCCCAGCTGATGAATTCACAACATCGAGTAAACAAATTTTCCTAATCTTTCTGTTCAAGCGCCATCTAC”, 2.47.
The result for “GATGATTGTTCTCCCAGCTGATGAATTGTCGAAATCGAGTAAACAAATTTTCCTAATCTTTCTGTTCAAGCGCCATCTAC” reads 0.417; that for “GATGATTGTTCTCCCAGCTGATGAATTCCTGGAATCGAGTAAACAAATTTTCCTAATCTTTCTGTTCAAGCGCCATCTAC”, 0.154; that for “GATGATTGTTCTCCCAGCTGATGAATTGTAGGGGTCGAGTAAACAAATTTTCCTAATCTTTCTGTTCAAGCGCCATCTAC”, 0.53.
Take “GATGATTGTTCTCCCAGCTGATGAATTATTACCATCGAGTAAACAAATTTTCCTAATCTTTCTGTTCAAGCGCCATCTAC”: the binding signal (RPM ratio (pull-down/input)) came out at 0.539.
Under “GATGATTGTTCTCCCAGCTGATGAATTACCCTAGTCGAGTAAACAAATTTTCCTAATCTTTCTGTTCAAGCGCCATCTAC” stands 0.237.
As to “GATGATTGTTCTCCCAGCTGATGAATTATATTCATCGAGTAAACAAATTTTCCTAATCTTTCTGTTCAAGCGCCATCTAC”, the binding signal (RPM ratio (pull-down/input)) is 0.709.
The result for “GATGATTGTTCTCCCAGCTGATGAATTCAACAGCTCGAGTAAACAAATTTTCCTAATCTTTCTGTTCAAGCGCCATCTAC” reads 0.333.
On to “GATGATTGTTCTCCCAGCTGATGAATTCCATCATTCGAGTAAACAAATTTTCCTAATCTTTCTGTTCAAGCGCCATCTAC”, for which the binding signal (RPM ratio (pull-down/input)) turned out to be 0.795.
As for “GATGATTGTTCTCCCAGCTGATGAATTCCTTGATTCGAGTAAACAAATTTTCCTAATCTTTCTGTTCAAGCGCCATCTAC”, the binding signal (RPM ratio (pull-down/input)) is 0.263.
Consider “GATGATTGTTCTCCCAGCTGATGAATTCCTTGTGTCGAGTAAACAAATTTTCCTAATCTTTCTGTTCAAGCGCCATCTAC”, for which the binding signal (RPM ratio (pull-down/input)) amounted to 0.577.
For “GATGATTGTTCTCCCAGCTGATGAATTTAGAAGGTCGAGTAAACAAATTTTCCTAATCTTTCTGTTCAAGCGCCATCTAC”, the binding signal (RPM ratio (pull-down/input)) turned out to be 0.292.
Regarding “GATGATTGTTCTCCCAGCTGATGAATTCGAACAGTCGAGTAAACAAATTTTCCTAATCTTTCTGTTCAAGCGCCATCTAC”, the binding signal (RPM ratio (pull-down/input)) was found to be 0.257.
As to “GATGATTGTTCTCCCAGCTGATGAATTGCATCTATCGAGTAAACAAATTTTCCTAATCTTTCTGTTCAAGCGCCATCTAC”, the binding signal (RPM ratio (pull-down/input)) stood at 5.45.
As to “GATGATTGTTCTCCCAGCTGATGAATTCTCGAGGTCGAGTAAACAAATTTTCCTAATCTTTCTGTTCAAGCGCCATCTAC”, the binding signal (RPM ratio (pull-down/input)) turned out to be 0.163.
Turning to “GATGATTGTTCTCCCAGCTGATGAATTCATCGGGTCGAGTAAACAAATTTTCCTAATCTTTCTGTTCAAGCGCCATCTAC”, the binding signal (RPM ratio (pull-down/input)) worked out at 0.356.
The result for “GATGATTGTTCTCCCAGCTGATGAATTAACCTTCTCGAGTAAACAAATTTTCCTAATCTTTCTGTTCAAGCGCCATCTAC” reads 0.222; that for “GATGATTGTTCTCCCAGCTGATGAATTCGGATTGTCGAGTAAACAAATTTTCCTAATCTTTCTGTTCAAGCGCCATCTAC”, 0.919; that for “GATGATTGTTCTCCCAGCTGATGAATTATGCTTCTCGAGTAAACAAATTTTCCTAATCTTTCTGTTCAAGCGCCATCTAC”, 2.5.
The result for “GATGATTGTTCTCCCAGCTGATGAATTTGGGCCCTCGAGTAAACAAATTTTCCTAATCTTTCTGTTCAAGCGCCATCTAC” reads 0.523.
Turning to “GATGATTGTTCTCCCAGCTGATGAATTTGACGCGTCGAGTAAACAAATTTTCCTAATCTTTCTGTTCAAGCGCCATCTAC”, the binding signal (RPM ratio (pull-down/input)) is 0.925.
Consider “GATGATTGTTCTCCCAGCTGATGAATTGCAAACTTCGAGTAAACAAATTTTCCTAATCTTTCTGTTCAAGCGCCATCTAC”, for which the binding signal (RPM ratio (pull-down/input)) was found to be 0.849.
Under “GATGATTGTTCTCCCAGCTGATGAATTTGTAGATTCGAGTAAACAAATTTTCCTAATCTTTCTGTTCAAGCGCCATCTAC” stands 2.47.
Regarding “GATGATTGTTCTCCCAGCTGATGAATTGACGGGATCGAGTAAACAAATTTTCCTAATCTTTCTGTTCAAGCGCCATCTAC”, the binding signal (RPM ratio (pull-down/input)) came to 0.304.
Take “GATGATTGTTCTCCCAGCTGATGAATTTAAGTCATCGAGTAAACAAATTTTCCTAATCTTTCTGTTCAAGCGCCATCTAC”: the binding signal (RPM ratio (pull-down/input)) was determined as 0.494.
Under “GATGATTGTTCTCCCAGCTGATGAATTCAGGGTTTCGAGTAAACAAATTTTCCTAATCTTTCTGTTCAAGCGCCATCTAC” stands 0.576; under “GATGATTGTTCTCCCAGCTGATGAATTCACTAGATCGAGTAAACAAATTTTCCTAATCTTTCTGTTCAAGCGCCATCTAC”, 0.21.
For the sequence “GATGATTGTTCTCCCAGCTGATGAATTTTCAAGTTCGAGTAAACAAATTTTCCTAATCTTTCTGTTCAAGCGCCATCTAC”, the binding signal (RPM ratio (pull-down/input)) stood at 0.224.
